{"source": "ChEMBL document CHEMBL4888484", "about": "“Replenishing the malaria drug discovery pipeline: Screening and hit evaluation of the MMV Hit Generation Library 1 (HGL1) against asexual blood stage Plasmodium falciparum ,using a nano luciferase reporter read-out” (2022)", "note": "The whole screen tested about 150,000 compounds, of which about 540 (0.36%) showed an effect of 50% or more. The list shows a part of the results."}
{"tested_on": "Plasmodium falciparum", "test": "Primary screen in NF54 nanoGlo assay, in single point, at 2uM, 72h; a lower Z score goes with more inhibition", "type": "functional, Erythrocyte", "details": "timepoint 72 hour", "units": {"% Inhibition": "%"}}
{"compound": "CCC1(CC)Cc2ccccc2-c2[nH]c(=O)n(-c3ccccc3F)c(=O)c21", "% Inhibition": -6, "Z score": 0.71}
{"compound": "C#CCN(CC=C)C(=O)[C@H]1CCC(=O)N(Cc2ccccn2)C1", "% Inhibition": -5, "Z score": 0.91}
{"compound": "C=CCCC(=O)NCC1CCN(C(=O)OC)CC1", "% Inhibition": -6, "Z score": 0.89}
{"compound": "CC(C(=O)NC1CCS(=O)(=O)C1)N1CC=CCC1", "note": "(stereo unspecified)", "% Inhibition": -16, "Z score": 1.64}
{"compound": "CCc1ncc(CN2CCO[C@@H](CCOC)C2)cn1", "% Inhibition": 8, "Z score": -1.19}
{"compound": "C[C@@H](COc1ccccc1)N1CCC(CCC(=O)N2CCCC2)CC1", "% Inhibition": 7, "Z score": -0.82}
{"compound": "O=C(C1CCCN1C1CC1)N1CCCC2(CCCOC2)C1", "note": "(stereo unspecified)", "% Inhibition": 0, "Z score": 0.05}
{"compound": "Cc1cc(-c2ccc(S(=O)(=O)Nc3ccc(F)cc3C)s2)[nH]n1", "% Inhibition": 2, "Z score": -0.47}
{"compound": "Cc1cccc2nc(CN3CCC[C@H](Cn4cncn4)C3)cn12", "% Inhibition": 5, "Z score": -0.75}
{"compound": "CCn1cc(NS(=O)(=O)c2ccc3c(c2)CC(Cl)(Cl)C3=O)cn1", "% Inhibition": -6, "Z score": 0.87}
{"compound": "COc1ccc(-c2ccc(CNC(=O)Cn3cnnn3)s2)cc1", "% Inhibition": 14, "Z score": -1.67}
{"compound": "CN(C)Cc1cc(NC(=O)NCc2noc3c2COCC3)ccn1", "% Inhibition": -2, "Z score": 0.35}
{"compound": "Cc1cc(C)n(CC2(CNC(=O)c3cn4cc(Cl)ccc4n3)CC2)n1", "% Inhibition": -9, "Z score": 1.7}
{"compound": "CC(Cc1cccs1)NC(=O)C1COCCN1CC(F)(F)F", "note": "(stereo unspecified)", "% Inhibition": -6, "Z score": 1.15}
{"compound": "NS(=O)(=O)CCCN1CCOc2ccc(Br)cc2C1", "% Inhibition": -3, "Z score": 0.43}
{"compound": "CS(=O)(=O)c1cc(NC(=O)NC2(c3c(F)cccc3F)CCC2)ccc1F", "% Inhibition": -4, "Z score": 0.59}
{"compound": "C[C@H]1CN(CCCNC(=O)c2ccsn2)CCCO1", "% Inhibition": -11, "Z score": 1.77}
{"compound": "Cc1scc(C(=O)NCc2ncc(C(F)(F)F)cn2)c1C", "% Inhibition": -12, "Z score": 1.84}
{"compound": "COc1ccccc1NC(=O)Cn1c(-c2nc(-c3ccccc3F)no2)cccc1=O", "% Inhibition": -13, "Z score": 1.25}
{"compound": "Cc1nccc(C2CCN(C(=O)Nc3ccc4oc(C)cc4c3)CC2)n1", "% Inhibition": -3, "Z score": 0.38}
{"compound": "Cc1oc(-c2ccccc2)cc1C(=O)N1CCC(n2ccnn2)CC1", "% Inhibition": -15, "Z score": 2.46}
{"compound": "CN(CCN1CCN(c2ccccc2)CC1)CCN1CCCC1=O", "% Inhibition": 0, "Z score": 0.02}
{"compound": "CNC(=O)C[C@H](C)N(C)Cc1cc(Cl)c(OC)cc1OC", "% Inhibition": -3, "Z score": 0.48}
{"compound": "CC(C)(C)OC(=O)N1CCC[C@@H]1CNC(=O)c1ccc2nncn2c1", "% Inhibition": -20, "Z score": 1.88}
{"compound": "N#CCN(c1cccc(Cl)c1)S(=O)(=O)c1cccn2cnnc12", "% Inhibition": -14, "Z score": 1.73}
{"compound": "CC(C)(CO)Nc1ccc(Br)cn1", "% Inhibition": -1, "Z score": 0.07}
{"compound": "COc1ccccc1[C@@H]1CC(c2cccn2C)=NN1C(=O)CN(CCN1CCOCC1)C(C)=O", "% Inhibition": 37, "Z score": -4.99}
{"compound": "CC1=CCC(NC2CCCn3ncnc32)CC1", "note": "(stereo unspecified)", "% Inhibition": 1, "Z score": -0.23}
{"compound": "CC(NC(=O)c1cncc(Br)c1)C1CC2CCC1C2", "note": "(stereo unspecified)", "% Inhibition": -6, "Z score": 0.91}
{"compound": "Cc1cccc(-c2noc(CN3CCC(n4cncn4)CC3)n2)c1", "% Inhibition": 0, "Z score": -0.08}
{"compound": "Cc1ccc([C@H]2N(c3cccc(Cl)c3)C(=O)[C@@H]3CCCN32)o1", "% Inhibition": 6, "Z score": -0.83}
{"compound": "CCN(CC(=O)Nc1ccn(C)n1)C[C@H](O)c1cccc(O)c1", "% Inhibition": -9, "Z score": 1.38}
{"compound": "CCn1nc(C(=O)N2CCCCC[C@H]2C(F)(F)F)ccc1=O", "% Inhibition": 2, "Z score": -0.27}
{"compound": "CN(CCC(=O)c1ccc(F)cc1)CC(F)F", "% Inhibition": 5, "Z score": -0.65}
{"compound": "CCO[C@@H](C)C(=O)NCc1cccs1", "% Inhibition": -15, "Z score": 1.58}
{"compound": "Cc1cnc(CNC(=O)[C@@H](C)C2CCOCC2)s1", "% Inhibition": 0, "Z score": -0.03}
{"compound": "CC1CCCCC1N(C)C(=O)c1ccoc1", "note": "(stereo unspecified)", "% Inhibition": 4, "Z score": -0.57}
{"compound": "O=C(CCC1CCCC1)N1CCCCC[C@H]1c1nc(C2CC2)no1", "% Inhibition": -11, "Z score": 2.1}
{"compound": "CNC(=O)[C@@H]1C[C@@H](NCc2c(F)cccc2F)CN1Cc1cccc(Cl)c1", "% Inhibition": -1, "Z score": 0.15}
{"compound": "COc1ccc(CCn2ccn3c(=O)cc(C)nc23)cc1", "% Inhibition": -12, "Z score": 1.53}
{"compound": "CN(C(=O)Cn1cccn1)c1nc2c(s1)C[C@@H](c1ccccc1)CC2", "% Inhibition": 3, "Z score": -0.45}
{"compound": "CC[C@@](C)(C#CCN1CCN(C)CC1)OC(C)=O", "% Inhibition": -2, "Z score": 0.36}
{"compound": "Cc1cccc(NS(=O)(=O)c2ccc3c(c2)CCN3S(C)(=O)=O)c1C", "% Inhibition": -1, "Z score": 0.09}
